From PubChem BioAssay AID602310 (National Center for Advancing Translational Sciences (NCATS), 2012)
The campaign covered roughly 410,000 compounds. About 310 (0.076%) were called active. Inconclusive means that the source gave no clear call. Such entries were picked first, then a sample of the others. Calls follow the shape of the dose curve; as a rule, active = well fitted curve in the direction sought with a large enough effect; inconclusive = small, poorly fitted or top-dose-only effect; inactive = flat fitted curve, though single readings scatter. Potencies of inconclusive entries are doubtful fits and often do not repeat.

Biological target: DNA dC->dU-editing enzyme APOBEC-3G (Homo sapiens) (UniProt Q9HC16)
UniProt Q9HC16, sequence (Q9HC16 whole entry, looked up): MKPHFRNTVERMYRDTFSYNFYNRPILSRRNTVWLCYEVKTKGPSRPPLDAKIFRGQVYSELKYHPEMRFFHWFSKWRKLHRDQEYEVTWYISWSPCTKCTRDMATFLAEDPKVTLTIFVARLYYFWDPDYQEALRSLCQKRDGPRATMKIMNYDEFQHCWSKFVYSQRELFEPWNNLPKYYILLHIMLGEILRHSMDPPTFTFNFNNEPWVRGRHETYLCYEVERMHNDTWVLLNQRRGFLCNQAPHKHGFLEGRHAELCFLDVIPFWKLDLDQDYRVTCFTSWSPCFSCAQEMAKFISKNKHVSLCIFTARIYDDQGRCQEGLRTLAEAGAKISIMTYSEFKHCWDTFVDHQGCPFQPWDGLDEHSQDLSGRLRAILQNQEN
Assay: qHTS for Inhibitors of Vif-A3G Interactions: qHTS; also: nearly all actives have a fitted effect of over 60% in size
Settings: HeLa A3G-eYFP + Vif (tagged APOBEC3G with the HIV-1 protein that degrades it), YFP fluorescence, overnight; series mostly up to 46.1 µM
Procedure, shortened: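 Read-out is eYFP fluorescence (Ex 488/Em 500-530) from Vif-expressing HeLa A3G-eYFP cells; more signal means A3G escaped Vif-mediated degradation. Cells plated overnight, compound pinned in, incubated overnight at 37 deg C.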
Potency is read from the fitted curve at half-maximal effect; tags tell the direction and shape of the fitted curve.

**Q.** For `O=c1c2ccccc2nc(/C=C\c2ccccc2[N+](=O)[O-])n1-c1ccccc1O`, which Potency is on record?
**A.** inconclusive: 35.5 µM [inhibitor, single point]

**Q.** `CCCC[N+]12CCC(CC1)C(Cc1ccccc1)C2` (stereo unspecified) was tested. Which Potency did it give?
**A.** inactive

**Q.** With `CCn1c(=O)oc2cc(NC(=O)CCl)ccc21` as the compound, how does the Potency read?
**A.** inconclusive: 11.2 µM [inhibitor, single point]

**Q.** With `O=C1NC(=O)N(Cc2ccccc2)C(=O)/C1=C/C=C/c1ccco1` as the compound, how does the Potency read?
**A.** inconclusive: 22.4 µM [inhibitor, single point]

**Q.** How did the Potency turn out when `COc1ccc(Oc2cc(NC(=O)c3nn(C)cc3[N+](=O)[O-])cc([N+](=O)[O-])c2)cc1` was run?
**A.** inconclusive: 2.51 µM [inhibitor, full curve, poor fit]

**Q.** Which Potency does the source give for `Cc1ccc(-c2cc(-c3ccc(C)cc3)[n+](-c3ccc(C(=O)[O-])cc3)c(-c3ccc(C)cc3)c2)cc1` here?
**A.** inactive

**Q.** With `CN(C)c1ccc(/C=C/C=C/c2sc3ccccc3[n+]2C)cc1` as the compound, how does the Potency read?
**A.** inactive

**Q.** Which Potency does the source give for `Cc1ccc(N2C(=O)NC(=O)/C(=C/c3ccoc3)C2=O)cc1` here?
**A.** inconclusive: 35.5 µM [inhibitor, single point]

**Q.** With `CCn1ccnc1CN1CCCC(C(=O)c2cc(F)ccc2OC)C1` (stereo unspecified) as the compound, how does the Potency read?
**A.** inactive

**Q.** How did the Potency turn out when `COc1cc(/C=C2/C(=O)NC(=O)N(c3ccc(C)cc3)C2=O)cc(OC)c1OC` was run?
**A.** inactive

**Q.** With `O=C1NC(=O)C(Sc2ccccc2[N+](=O)[O-])C(=O)N1` as the compound, how does the Potency read?
**A.** inactive

**Q.** With `O=C1NC(=O)N(c2ccc3c(c2)OCO3)C(=O)/C1=C/c1ccc(N2CCCC2)o1` as the compound, how does the Potency read?
**A.** inconclusive: 22.4 µM [inhibitor, single point]

**Q.** With `CSc1ncc(/C=C2/C(=O)NC(=O)N(c3ccc(C(C)C)cc3)C2=O)cn1` as the compound, how does the Potency read?
**A.** inactive

**Q.** For `O=C(Nc1ccc(Cl)cc1)Nc1nccs1`, which Potency is on record?
**A.** inconclusive: 2 µM [inhibitor, full curve, poor fit]

**Q.** How did the Potency turn out when `O=c1c2ccccc2nc(CSc2ncnc3nc[nH]c23)n1-c1ccccc1` was run?
**A.** inconclusive: 25.1 µM [inhibitor, single point]

**Q.** With `O=C(c1ccccc1)C(CN1CCCC1)c1ccccc1` (stereo unspecified) as the compound, how does the Potency read?
**A.** inconclusive: 7.94 µM [inhibitor, partial curve, poor fit]

**Q.** With `CCOc1ccc(N2C(=O)NC(=O)/C(=C\c3ccc(N4CCCCC4)o3)C2=O)cc1` as the compound, how does the Potency read?
**A.** inconclusive: 3.55 µM [inhibitor, full curve]

**Q.** Which Potency does the source give for `CN1CN(c2ccccc2)C2(CCN(CCCSc3ccccc3NC(=O)/C=C/c3ccccc3)CC2)C1=O` here?
**A.** inconclusive: 11.2 µM [inhibitor, partial curve, poor fit]

**Q.** How did the Potency turn out when `Cn1c(=O)oc2cc(S(=O)(=O)N3CCCc4ccccc43)ccc21` was run?
**A.** inconclusive: 1.41 µM [inhibitor, full curve, poor fit]

**Q.** With `C=CCn1c(O)c(C(CC)=NCCc2c[nH]c3ccccc23)c(=O)[nH]c1=O` as the compound, how does the Potency read?
**A.** inconclusive: 35.5 µM [inhibitor, single point]

**Q.** For `O=c1c2ccccc2nc(/C=C/c2ccccc2)n1-c1ccc(O)cc1`, which Potency is on record?
**A.** inactive

**Q.** How did the Potency turn out when `CCN(CC)c1ccc(/C=C/[N+](=O)[O-])cc1` was run?
**A.** inconclusive: 35.5 µM [inhibitor, single point]

**Q.** `COc1ccc(C2=CC(c3ccc4c(c3)OCO4)c3c(c4ccccc4oc3=O)O2)cc1OC` (stereo unspecified) was tested. Which Potency did it give?
**A.** inconclusive: 1.26 µM [inhibitor, full curve, poor fit]

**Q.** Which Potency does the source give for `CN(C)C(=O)Oc1ccc2c(c1)O/C(=C\c1cccc(Cl)c1)C2=O` here?
**A.** inactive

**Q.** How did the Potency turn out when `CCN1/C(=C/C=C/C2=[N+](CC)c3ccccc3C2(C)C)C(C)(C)c2ccccc21` was run?
**A.** inactive

**Q.** For `CCOc1ccc(N(CC)S(=O)(=O)c2ccc3c(c2)oc(=O)n3C)cc1`, which Potency is on record?
**A.** inconclusive: 7.94 µM [inhibitor, partial curve]

**Q.** How did the Potency turn out when `CCCCCC(=O)N[C@@H](c1ccccc1)[C@@H](O)C(=O)O[C@H]1C[C@@]2(O)[C@@H](OC(=O)c3ccccc3)C3[C@](C)(C(=O)[C@H](O)C(=C1C)C2(C)C)[C@@H](OC1OCC(O)C(O)C1O)C[C@H]1OC[C@@]31OC(C)=O` (stereo partly specified) was run?
**A.** inconclusive: 1.12 µM [inhibitor, full curve, poor fit]

**Q.** For `O=C1/C(=C/c2ccccc2)C[C@@]2(O)[C@H]3Cc4ccc(O)c5c4[C@@]2(CCN3CC2CC2)C1O5` (stereo partly specified), which Potency is on record?
**A.** inconclusive: 11.2 µM [inhibitor, partial curve, poor fit]

**Q.** With `Cc1c(Cl)cccc1NC(=O)c1oc2ccc(S(=O)(=O)N3CCC4(CC3)OCCO4)cc2c1C` as the compound, how does the Potency read?
**A.** inconclusive: 7.08 µM [inhibitor, partial curve, poor fit]

**Q.** How did the Potency turn out when `CCCCC1(CCCC)C(=O)NC(=Nc2cccc(C)c2)NC1=O` was run?
**A.** inactive

**Q.** `CC/C(=N\NC(=O)c1ccccc1O)c1c(O)n(Cc2ccccc2)c(=O)[nH]c1=O` was tested. Which Potency did it give?
**A.** active: 10 µM

**Q.** With `O=c1c2ccccc2nc(-c2ccc(Cl)cc2Cl)n1-c1nccs1` as the compound, how does the Potency read?
**A.** inconclusive: 35.5 µM [inhibitor, single point]

**Q.** `CCCN1CCc2cccc3c2[C@H]1Cc1ccc(O)c(O)c1-3` was tested. Which Potency did it give?
**A.** inactive

**Q.** For `CCCCn1c(=O)c(C=Nc2cccnc2Cl)c(O)n(CCCCl)c1=O`, which Potency is on record?
**A.** inconclusive: 20 µM [inhibitor, partial curve]

**Q.** For `C=C1C2[C@H](OC(C)=O)[C@@H]3CC(=O)[C@]4(C)OC[C@@]3(C)[C@@]4(O)[C@@H](OC(C)=O)[C@H](OC(C)=O)[C@@]2(COC(=O)c2ccccc2)[C@@H](OC(C)=O)C[C@@H]1O` (stereo partly specified), which Potency is on record?
**A.** inconclusive: 12.6 µM [inhibitor, single point]

**Q.** How did the Potency turn out when `O=C1CCN(C(=O)CCCn2c(=O)oc3ccccc32)CC1` was run?
**A.** inactive

**Q.** `Cc1ccc(/C=C2\C(=O)NC(=S)N(c3ccc(F)cc3)C2=O)s1` was tested. Which Potency did it give?
**A.** inconclusive: 12.6 µM [inhibitor, single point]

**Q.** With `CCC1C(c2cc(OC)c(OC)c(OC)c2)c2cc3c(cc2OC1N1CCCC1)OCO3` (stereo unspecified) as the compound, how does the Potency read?
**A.** inconclusive: 1.58 µM [inhibitor, full curve, poor fit]

**Q.** `CN1CC[C@@]2(C)c3cc(O)ccc3N(C)C12` (stereo partly specified) was tested. Which Potency did it give?
**A.** inactive

**Q.** Which Potency does the source give for `Cc1ccc2c(c1)CC1(CN2C)C(=O)NC(=O)N(c2ccccc2C)C1=O` (stereo unspecified) here?
**A.** inconclusive: 25.1 µM [inhibitor, single point]

**Q.** How did the Potency turn out when `O=[N+]([O-])c1cc(C(F)(F)F)c(Cl)c([N+](=O)[O-])c1Nc1ncc(C(F)(F)F)cc1Cl` was run?
**A.** inactive
